# In publication PMC12136788:
# This is one part of the list.
# T1: UNK ZnF1-3 (human, UniProt Q9C0B0 31-174)
# T1 sequence: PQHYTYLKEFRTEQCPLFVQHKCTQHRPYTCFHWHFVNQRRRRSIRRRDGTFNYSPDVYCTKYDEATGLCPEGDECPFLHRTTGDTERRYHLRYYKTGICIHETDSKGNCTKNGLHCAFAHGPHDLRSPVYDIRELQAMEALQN
# B1: chr7:151048522:151048523:+_ENSG00000013374_ENST00000566856|hu_mus|hu_hu_hu_mus_True|8_38 (ssRNA)
# RNA: GGGAGUUCUACAGUCCGACGAUCCUGUUUCUUAUUUAUUACGAUCUUGAUGUAAUUUUCUUGAAAUCCGAAAGUUUCAGCUAUUUGACACCUCAGGUCUCUGCCAGUGACAUGCAAGCGGGUCUCCAACAAGUUUUUCUUAUCCAACAGAGGAUUGAGCAUCA
# B2: chr5:134191040:134191041:+_ENSG00000181904_ENST00000394976|hu_mus|FALSE|FALSE (ssRNA)
# RNA: GGGAGUUCUACAGUCCGACGAUCAAAGGCAGCAGUGCCACAGCCAUAGCCAAGAUCUGCAAGGCGGGACAGAGCUUUAAUGCUACCUGGAGGUCUCCCUGGGCUGACUUUGUAUCCUGCAGCUUUGGUUGUACCCAAAGGUCUCAACAGAGGAUUGAGCAUCA
# B3: chr2:151326667:151326668:-_ENSG00000115963_ENST00000263895|hu_mus|FALSE|FALSE (ssRNA)
# RNA: GGGAGUUCUACAGUCCGACGAUCUUUAUUUGUCUUAUUUACACACGCCAAGGUGGCGACGUGAAAAAUGUCUCUGACGCUGUUUUCUGACUGUAAAGCUGAGCAUUCUAUGUAAGUGGCUGCUCCGAUCUGCUUGGCCAUAUUCAACAGAGGAUUGAGCAUCA
# B4: 111930651_111930927_1848_CDS_ENSMUSG00000021270_ENSMUST00000094361|mouse|control|control (ssRNA)
# RNA: GGGAGUUCUACAGUCCGACGAUCAACCACCUUUUCAACCUUCUUCUCCAAAAUAUCUUUCAUAAUUUUGCAGAGGUUCUCAAAUUUUGUCUUUUUCUCUUCCUGUUUCUUCUUUUCCUCUUCAUCUUCUGGAAGUUCCAGUCCCAACAGAGGAUUGAGCAUCA
# B5: chr2:117093540:117093541:+_ENSMUSG00000027349_ENSMUST00000028825|mus_hu|FALSE|FALSE (ssRNA)
# RNA: GGGAGUUCUACAGUCCGACGAUCCAUUGUAAUCGUUGUCUUGGGUGACAAAGCAUAACGCUUAGGCUGAUAAAUUCUUGCUAUAUCAUCUGUUUUUACCUUUGCUCUAUCAGACCAUCCAAAGGACUGUACAGUCACAUCUAACAACAGAGGAUUGAGCAUCA
# B6: chr17:38556828:38556829:-_ENSG00000131747_ENST00000423485|hu_hu|FALSE|FALSE (ssRNA)
# RNA: GGGAGUUCUACAGUCCGACGAUCGGUCCAUGUUCUGACGGGAAGCUCUGAGAUUUCAAUGGUUGUAGAAUUAAGAAUAGCUACUUCACCACUAAUCACAUAUUGAUUUGGAGCCAGUUCUUCAAUAGUACCCUUGAAGUUCUUCAACAGAGGAUUGAGCAUCA
# B7: chr7:91259230:91259231:-_ENSMUSG00000038459_ENSMUST00000117085|mus_hu|FALSE|FALSE (ssRNA)
# RNA: GGGAGUUCUACAGUCCGACGAUCCCCUUCAACCCAAAGGGGCUCCACGGCUCGGGGACAGCGCUCGUACAUCGCUAGGCCAUGGGAGAAAUCGAUGACCUCAUCCUCUGUACCAUGAAUGACCAACACAGGAGAGGUGACUUUCAACAGAGGAUUGAGCAUCA
# B8: 35570361_35576005_1032_CDS_ENSG00000197056_ENST00000373330|human|control|control (ssRNA)
# RNA: GGGAGUUCUACAGUCCGACGAUCAUUAAUAGAGCAGAAAAGCUCUGUCUUCCCCAAAUCACUCGUAGUCUCAAUCAUUUCAUCUGAGGGCUUCAAUGGUUUGCAAGGAACAGAUAUAAGUGGUUUGGCAGGUUUCUGCUUAUACAACAGAGGAUUGAGCAUCA
# B9: chr16:23446027:23446028:-_ENSG00000168434_ENST00000307149|hu_hu|FALSE|FALSE (ssRNA)
# RNA: GGGAGUUCUACAGUCCGACGAUCGUAGUAGGCCAGGAGCUGGGGCAUCCGGUCAAUUUCAGUAAACACCUUCACAAACACUUUGGACUGAUCUACAGCCUGAGAGGUGAAUGCCGCUACAAUCUGUGGACUGGCUAGGGCCUCCAACAGAGGAUUGAGCAUCA
# B10: 87534184_87534304_1713_3pUTR_ENSMUSG00000037104_ENSMUST00000041369|mouse|control|control (ssRNA)
# RNA: GGGAGUUCUACAGUCCGACGAUCGGGUCAUGGGCAUCGAAGCUGAAGUUGUGGUUCCACUGCUCGAUCCGGGCGUGCAGAGACCUGUUGUAGCGGCGGAAGCUCACAGAGAAGAGGUAGUCCUCCUGUGCAGAGUCCCUGAGCCAACAGAGGAUUGAGCAUCA
# B11: chr6:65046092:65046093:+_ENSMUSG00000029920_ENSMUST00000031984|mus_hu|FALSE|FALSE (ssRNA)
# RNA: GGGAGUUCUACAGUCCGACGAUCAAGGUGCUGGUAGCGAAUGGAGCCCAUAUUCUUCAGCAUAUGGCCCUCAUCAAAAAUUGCGUAAUUAAGUUUCAGCCGUCGAAACAGACUACGGUCAUCAGAACUGCUGAUCGCACAGUUCAACAGAGGAUUGAGCAUCA
# B12: chr11:46405157:46405158:+_ENSG00000110492_ENST00000395566|hu_hu|hu_hu_hu_mus_False|8_18 (ssRNA)
# RNA: GGGAGUUCUACAGUCCGACGAUCCCCUCCCCACUUUGGGCACUUGGUGUGGGCGUGAGAGGACAGGCGUGAUUGACAGAGCUGACAGGAAGACAAAAGGCACUGGUGGGUUAUAUCUCGGGCCUGGGAGAGGGAGGGGCUCCGCAACAGAGGAUUGAGCAUCA
# B13: chr1:130485734:130485735:-_ENSMUSG00000045382_ENSMUST00000052172|mus_mus|mus_mus_mus_hu_False|88_88 (ssRNA)
# RNA: GGGAGUUCUACAGUCCGACGAUCGAUGAAGGAGUCGAUGCUGAUCCCCACAUAAUAAGGCAGCCAACAGGCGAAGAAAGCCAGGAUGAGGAUGACUGUGGUCUUGAGGGCCUUGCGCUUCUGGUGGCCCUUGGAGUGUGACAGCAACAGAGGAUUGAGCAUCA
# B14: 52312331_52312451_268_5pUTR_ENSG00000164091_ENST00000296490|human|control|control (ssRNA)
# RNA: GGGAGUUCUACAGUCCGACGAUCCCUUAGCGACGCGGAAGCUCCGCAACACGCUGUCGGUCAGCUUCAUGGCGGCGGCUGGGGAAGGCAGCGGCGGCGCAGGGCCGGGGCGGGGCCCGGCGGCGAGCGGGCGGGCUGCCGAGGCAACAGAGGAUUGAGCAUCA
# B15: chr2:198351390:198351391:-_ENSG00000144381_ENST00000345042|hu_hu|hu_hu_hu_mus_False|8_88 (ssRNA)
# RNA: GGGAGUUCUACAGUCCGACGAUCUCAUUCCCACCCUCCACAGAAAGGCUGCUUAACAACUCUCAUGUGGUGACACAGCGCUACAGUCCUGAUGCUCACAGAACAGUAGAGAUGCCUCAGUGAUUUAUUAAGUUGAAAGGACACCAACAGAGGAUUGAGCAUCA
# B16: chr2:55199926:55199927:-_ENSG00000115310_ENST00000317610|hu_mus|FALSE|FALSE (ssRNA)
# RNA: GGGAGUUCUACAGUCCGACGAUCCAUUUCAGAAAAAUCUGCAUCAGUUUUACACCAACCAAACACAGUACACUGUGAAAAGGGUUGUUUUUCCUGCCCCCAAAUCUACCUUCUUUGCAACUUUCCAAAUACAGCCAGACUACCCAACAGAGGAUUGAGCAUCA
# B17: chr11:115359251:115359252:-_ENSMUSG00000020737_ENSMUST00000021083|mus_hu|motif|central (ssRNA)
# RNA: GGGAGUUCUACAGUCCGACGAUCUAUUUCUUCUUAAAAACACAGUACUAAGUGUCACAAAGCUUUCCCUCCAAUCGGCGGCGGGAAAACACUCAUGCCAUGGCCCACAGACCCAAGAGUCAAGGACAGAGAGAAACCUGUUCUCAACAGAGGAUUGAGCAUCA
# B18: chr1:244870462:244870463:+_ENSG00000121644_ENST00000302550|hu_hu|FALSE|FALSE (ssRNA)
# RNA: GGGAGUUCUACAGUCCGACGAUCAUAGCAAACAAUCCAAUCUAAAAGUUUAAAUAAAUGUCAAUAAUUUUAAAACUAACUAUAUUUUAUAUGUAUAUAAAGCUGAAGUCACUGCCUUGGAUAGUGUUACACUGCAUCCAAUAUCAACAGAGGAUUGAGCAUCA
# B19: chr5:31552970:31552971:+_ENSG00000082213_ENST00000325366|hu_hu|motif|central (ssRNA)
# RNA: GGGAGUUCUACAGUCCGACGAUCCAUGUACAAAUAAGUUAAUUAAGGGCCUGUUACUAAACCAAGAUACAACAGGAGCCGGAUGUUUUGUUUGUUUCAAGAUGGAGGAGACUCUGCUGCAUACACUUGGAGGUCUAGAUUUCCCAACAGAGGAUUGAGCAUCA
# B20: chr5:128440902:128440903:+_ENSG00000066583_ENST00000173527|hu_mus|hu_hu_hu_mus_True|48_98 (ssRNA)
# RNA: GGGAGUUCUACAGUCCGACGAUCUUGAACGGUGCUGCCAAGACCUUUGGGGUAUUGUUCCGUUAUGAUAACUGGAAUCCCUAAGAUCCGGGCCCCUUGCAACAGUCUCUGUCCCACACUAAUGAUGUCCCCAAAGUAUUUGAUCAACAGAGGAUUGAGCAUCA
# B21: chr2:32989838:32989839:-_ENSMUSG00000038831_ENSMUST00000042615|mus_hu|motif|central (ssRNA)
# RNA: GGGAGUUCUACAGUCCGACGAUCUGUUGAGCCUUUUGAUGCCUUUCUAGAGGAAUCUAUGCACAGGAUUUAUACUCAGGACGGGGAGAGAGGCAAAGUCUUGCCUAAGGAGAUAGGUGUGGUGGGGACUGUUUGUUGAGUGGUCAACAGAGGAUUGAGCAUCA
# B22: chr22:19442333:19442334:-_ENSG00000070010_ENST00000399523|hu_mus|FALSE|FALSE (ssRNA)
# RNA: GGGAGUUCUACAGUCCGACGAUCAACCUUUUUGACCAAUGGACGUGAAUUUCUGAUGAAAGUGAUCUUACCAAGCUUAAAUUCGUAAUUAGGAAUUCCUCUUUUGAUGUCUCCAGGCUUGAUUGGGGAGGGACUGGGCUCAACCAACAGAGGAUUGAGCAUCA
# Target: T1, UNK ZnF1-3
# Experiment: nsRBNS (natural sequence RNA bind-n-seq); RBNS binding buffer (assumed for nsRBNS): 25 mM Tris pH 7.5, 150 mM KCl, 3 mM MgCl2, 0.01% Triton X-100, 500 ug/ml BSA, 20 U/ml SUPERase-In, 4 C; UNK is unkempt and MSI1 is Musashi-1; names of the RNAs are library labels; protein concentration not given here; high values mean tight binding
row,Binder,binding signal [enrichment R]
1,B1,0.713
2,B2,1.22
3,B3,0.639
4,B4,0.489
5,B5,0.587
6,B6,1.12
7,B7,1.18
8,B8,0.791
9,B9,0.699
10,B10,0.884
11,B11,0.599
12,B12,3.08
13,B13,1.22
14,B14,0.587
15,B15,1.27
16,B16,1.34
17,B17,0.738
18,B18,2.37
19,B19,1.61
20,B20,0.639
21,B21,1.2
22,B22,1.36
